# Laboratory results taken from article PMC4336329 (PLoS ONE, 2015).
# About 14,000 (4.5%) of roughly 310,000 compounds showed an effect of 50% or more. The effect is printed as a negative number. The list shows a part of the results.
# Target: human ether-à-go-go-related gene (hERG) potassium channel (human, UniProt Q12809)
# Assay: primary screen, population patch clamp on CHO cells stably expressing hERG
# 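Also: peak tail current of the secondary pulse compared with the same well before compound.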
# Sequence of human ether-à-go-go-related gene (hERG) potassium channel (Q12809 whole entry, looked up): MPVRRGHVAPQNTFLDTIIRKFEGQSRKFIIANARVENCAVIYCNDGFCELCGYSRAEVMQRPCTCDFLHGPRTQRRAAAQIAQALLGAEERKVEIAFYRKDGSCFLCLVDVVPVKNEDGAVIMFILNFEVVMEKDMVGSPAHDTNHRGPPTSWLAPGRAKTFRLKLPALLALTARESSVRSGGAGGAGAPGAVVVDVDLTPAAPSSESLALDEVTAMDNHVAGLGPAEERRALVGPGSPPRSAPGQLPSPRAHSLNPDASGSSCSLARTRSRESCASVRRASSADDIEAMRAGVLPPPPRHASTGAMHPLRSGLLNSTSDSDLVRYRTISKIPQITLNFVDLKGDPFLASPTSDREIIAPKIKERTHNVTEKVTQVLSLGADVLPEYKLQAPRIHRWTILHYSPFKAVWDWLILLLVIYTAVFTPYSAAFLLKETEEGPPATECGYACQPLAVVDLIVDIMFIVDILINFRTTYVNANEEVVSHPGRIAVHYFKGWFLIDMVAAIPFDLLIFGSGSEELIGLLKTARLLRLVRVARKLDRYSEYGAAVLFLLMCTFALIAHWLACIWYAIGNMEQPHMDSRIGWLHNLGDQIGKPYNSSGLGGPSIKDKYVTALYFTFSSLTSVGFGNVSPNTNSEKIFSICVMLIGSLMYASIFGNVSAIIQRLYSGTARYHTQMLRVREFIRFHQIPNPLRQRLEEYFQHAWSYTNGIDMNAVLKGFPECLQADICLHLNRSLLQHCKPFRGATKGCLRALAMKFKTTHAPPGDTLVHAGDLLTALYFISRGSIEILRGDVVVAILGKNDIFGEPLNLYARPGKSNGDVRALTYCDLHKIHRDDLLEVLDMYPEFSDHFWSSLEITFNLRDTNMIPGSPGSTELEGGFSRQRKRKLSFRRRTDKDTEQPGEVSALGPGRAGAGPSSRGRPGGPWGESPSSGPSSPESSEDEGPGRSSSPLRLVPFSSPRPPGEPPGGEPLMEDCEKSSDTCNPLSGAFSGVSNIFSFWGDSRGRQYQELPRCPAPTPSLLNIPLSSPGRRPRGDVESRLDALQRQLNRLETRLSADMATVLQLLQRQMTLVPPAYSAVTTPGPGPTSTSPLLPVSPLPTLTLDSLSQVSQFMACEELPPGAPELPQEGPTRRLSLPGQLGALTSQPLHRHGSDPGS
row,Structure (SMILES),"hERG current change (%, negative = inhibition) at 10uM [%]"
1,CCOC(=O)c1c(Nc2ccccc2OCCOC)n[nH]c1C,1.25
2,O=C(Nc1ncccc1O)c1cccc(S(=O)(=O)N2CCc3ccccc32)c1,-25.2
3,COc1ccc(CN2CC(C(=O)N3CCOCC3)CC2=O)cc1 (stereo not drawn),12.7
4,O=C(CCC1CCCCC1)Nc1cccc(C(=O)Nc2ccc(C(=O)O)cc2)c1,22.4
5,O=C(NCCCN1CCOCC1)c1cc(-c2ccc(Cl)c(Cl)c2)on1,-49.1
6,CC(C)c1nnc(NC(=O)c2cccs2)s1,6.72
7,CC(C)(C)n1nc2c(c1NC(=O)Cc1cccc3ccccc13)CS(=O)(=O)C2,-3.5
8,CCOc1nc(OCC)nc(-n2cc(-c3ccccc3)nn2)n1,3.41
9,CC(Oc1ccc(-c2ccccc2)cc1)C(=O)O (stereo not drawn),18.7
10,CCc1ccc(C(=O)COC(=O)[C@@H](NC(N)=O)[C@@H](C)CC)cc1,-14.5
11,O=C(O)c1ccc(N2CCCCC2)cc1O,3.83
12,COc1ccccc1NS(=O)(=O)c1ccc(NN=C2CCCC2)c([N+](=O)[O-])c1,8.84
13,CS(=O)(=O)Nc1ccc(C2=NN(S(C)(=O)=O)C(c3ccc4nccnc4c3)C2)cc1 (stereo not drawn),-32.8
14,Cc1ccc(C(=O)COC(=O)c2cnccn2)cc1C,17
15,COc1ccccc1C(=O)NC(=S)/C=C1/N(C)c2ccccc2C1(C)C,-10.9
16,COc1ccc(C)cc1N(C(=O)c1ccco1)C(C(=O)NC1CCCC1)c1ccc(N2CCOCC2)cc1 (stereo not drawn),-5.77
17,COCCSc1ccccc1C(=O)NCCCn1ccnc1,-15.1
18,COc1ccccc1Nc1ccc(S(=O)(=O)N2CCCCC2)cc1[N+](=O)[O-],9.03
19,COc1ccc(-c2csc3nc[nH]c(=O)c23)cc1OC,4.52

row,Structure (SMILES),"hERG current change (%, negative = inhibition) at 10uM [%]"
1,CCOC(=O)c1ccc(N2C(=O)CC(N3CCCC(C)C3)C2=O)cc1 (stereo not drawn),3.18
2,C[C@H](NC(=O)C1CCN(S(=O)(=O)c2ccccc2)CC1)C(=O)NCc1ccc(F)cc1,2.23
3,Cn1nnnc1N=N/C(=N/Nc1ccccc1)c1ccccc1,6.78
4,CCOC(=O)Nc1ccc(C(=O)c2ccncc2)cc1,14.7
5,O=C(O)C1=NN(c2ccccc2)C(=O)C1,4.84
6,Nc1nc(SCC(=O)Nc2ccc(OCc3ccccc3)cc2)n[nH]1,17.2
7,CC(CN1CCCCC1)OC(=O)c1ccccc1Cl.Cl (stereo not drawn),0.889
8,CCOc1nc(C)cc(C)c1S(=O)(=O)c1cccc(C)c1,-5.24
9,Cc1ccc(CNC(=O)c2cc(S(=O)(=O)N3CCCCC3)ccc2N2CCOCC2)cc1,-40.5
10,Cc1ccc(C(=O)CSc2nc3ccccc3c(=O)[nH]2)cc1C,13.1
11,O=C(O)c1ccc2c(c1)C(=O)N(c1ncccn1)C2=O,-1.29
12,Cc1cccc(CC2SC(N)=NC2=O)c1.Cl (stereo not drawn),19.9
13,COc1ccccc1N1CCN(CCCNC(=O)Nc2ccccc2C)CC1,-33.7
14,O=S(=O)(c1ccccc1)N1CCc2ccccc2C1,1.32
15,CC(=O)Nc1ccc(S(=O)(=O)N2CCN(Cc3cccs3)CC2)cc1.O=C(O)C(=O)O,-7.69
16,O=C(NCc1ccco1)c1cc2ccccc2c(=O)o1,14
17,C=CCn1c(SCC(=O)Nc2ccccc2)nnc1-c1cccc(S(=O)(=O)N2CCOCC2)c1,-47.5
18,COC(=O)c1ccc(C)c(NS(=O)(=O)c2ccc(OC)c(OC)c2)c1,-11.9
19,O=C(c1cnc(N2CCN(c3ccccn3)CC2)c2ccccc12)N1CCN(c2cccc(Cl)c2)CC1,3.86

row,Structure (SMILES),"hERG current change (%, negative = inhibition) at 10uM [%]"
1,C/C(=N\OC(=O)c1c(-c2c(F)cccc2Cl)noc1C)c1nccs1,12.9
2,Cc1ccc(S(=O)(=O)N(C)C)cc1NC(=O)COC(=O)Cc1ccc(Br)cc1,-56.7
3,O=C(Cn1cc(C(=O)C2CCCCC2)c2ccccc21)NCC1CCCO1 (stereo not drawn),-14.8
4,COc1ccc(/C=C(/NC(=O)c2ccco2)C(=O)N2CCc3ccccc32)cc1OC,-2.94
5,CC1(C)CC2CC(C)(CN2S(=O)(=O)c2ccc(C(=O)Nc3cc(S(=O)(=O)N4CCOCC4)ccc3Cl)cc2)C1 (stereo not drawn),12
6,Cc1ccccc1Nc1nc(-c2cccnc2)nc2ccccc12.Cl,-30.1
7,c1ccc(-c2ccccc2OCCN2CCCC2)cc1,-26.6
8,O=[N+]([O-])c1cccc(S(=O)(=O)NCc2ccccn2)c1,15.6
9,COc1cccc(NC(=O)COc2ccc(N3CC(C(=O)NCC(C)C)CC3=O)cc2)c1 (stereo not drawn),16.9
10,Cc1cc(C)n(-c2nc3sc4c(c3c(=O)[nH]2)CCCC4)n1,0.511
11,CC(C)OC(=O)c1c(NC(=O)C2CC=CCC2C(=O)O)sc2c1CCCCC2 (stereo not drawn),-21.7
12,O=C(COc1ccc2c(c1)C(=O)CC1(CCCCC1)O2)NCc1ccccn1,-33.9
13,Cc1c(S(=O)(=O)Nc2ccc3c(c2)OCCO3)cnn1C,8.21
14,CCCCc1nc2cc(C(=O)N3CCC[C@H]3CO)ccc2o1,15.4
15,O=C(CSc1ccc2ccccc2n1)Nc1ccc(N2CCOCC2)cc1,4.27
16,O=C1NC(=S)NC(=O)C1=Cc1ccc2c(c1)CCN2CCCCl,10.1
17,O=S(=O)(c1cccc2nsnc12)N1CCN(c2ccc(F)cc2)CC1,-31.3
18,CCCC(=O)NC(=S)NNC(=O)c1ccc([N+](=O)[O-])cc1,8.59
19,O=C(CN1CCS(=O)(=O)CC1)NNC(=O)C1CCCCC1,-4.44
